Reference: publication PMC10668032
Some of the results follow. At the low end of the ranking the order means little.

What follows are sequences tested against SIX1 homeodomain (reference allele) (UniProt Q15475) (assay: universal protein binding microarray). Settings: Universal all-10-mer PBM (8x60K, AMADID 030236), 300 nM GST-tagged protein, Alexa Fluor 488 anti-GST; buffer, salt, pH and temperature not stated; high values mean tight binding; most listed sequences are background and not binding sites; double strand, one strand shown.

Sequence | binding signal [E-score]
ATCGTTAG | 0.271
AGATAGAG | 0.0387
CTTGACCA | -0.22
CATACAGA | 0.196
CCTACACA | -0.0703
CCATAACA | 0.0303
ATTTATAA | 0.0163
AAATCCGG | 0.244
GGCACAGA | -0.112
CCTGTGCC | 0.0102
AACACCAC | 0.255
AAGTAACC | -0.0509
AGCCATAC | 0.0156
GTGTAAAC | -0.00155
AGATTTGA | -0.00405
AATTCTAA | -0.074
ATAGTCAA | 0.0303
GCGAAAAC | -0.349
AATACATA | 0.242
AGGACTTG | -0.172
GGATGGCA | 0.154
AAATCTAA | -0.157
TGGTCTAA | -0.00916
ACGCGCGT | -0.0496
GCAGGTCC | -0.0856

Sequence | binding signal [E-score]
CCAACCGG | 0.00407
ACGCGGAT | 0.297
ACAGGCAA | -0.237
GCAAGAGC | -0.0465
GTCTGTCA | -0.0514
GTTAACTA | -0.262
ATTACTGG | 0.107
ACCACGAA | 0.0223
TCATGGCA | -0.0688
AGTAGGCC | -0.227
CAGTTGAG | -0.144
ACTGATCG | 0.156
CACATTCG | -0.0447
GCGGACAA | -0.177
AAGCGGGC | -0.256
GAAGTTCC | -0.349
CAGGGATC | 0.42
GTCGCTCA | -0.231
GTAGTGAC | 0.0448
CATAAAGC | -0.123
GGAAGACC | -0.236
ACCGGTAG | -0.0329
ACTAACAA | -0.243
GAAACCCC | 0.121
CCCAGGTA | 0.17

Sequence | binding signal [E-score]
ACCGTTCT | -0.269
AACGAACT | -0.112
AAAAATCA | -0.142
TGTCATAA | 0.00529
GATGCTCC | -0.0897
CGCCCCAA | -0.0309
CCAAAGAC | -0.119
CTAATATA | 0.261
GAAAGTAC | -0.28
TACTCACA | 0.165
ATGGGTAG | 0.121
ATTATCCC | 0.274
AGCACCAC | -0.0988
ATGATCTG | 0.355
GTCATCGA | -0.0083
GCTGCTCC | -0.264
GAATCCCA | 0.165
AAGGAGAT | 0.232
ATGGGATG | 4.5e-05
AAATTGCA | -0.246
ATCTCAGG | 0.164
ATTCAAAG | -0.308
GACAATAA | 0.0406
TATGTTGA | 0.0435
CAGGCCGG | -0.0961

Sequence | binding signal [E-score]
CCTTATTA | 0.0415
GCCGCGTA | -0.0843
AGACAGGG | -0.0395
GCGGGCCA | -0.202
CCATGTGC | -0.14
CGCGGCCG | -0.0562
GCACGCGA | -0.0204
AGAAATGC | -0.17
AGCGAGGG | -0.00814
ACTTCGTC | 0.0277
AACGTATC | 0.385
AAGCGTTA | -0.267
ACACGGAA | 0.0633
CTGAAACA | -0.15
GAGAGTAA | -0.116
CTCAATCA | -0.0919
AGCTACGC | -0.0418
GGTGGAAC | -0.25
GTGTCTCA | 0.236
GTCCGGAC | -0.00288
ACGCCCTC | -0.108
AACTCCTT | -0.235
ACGTGAGC | -0.0691
AATCACAC | 0.0767
GCGAATCA | -0.23

Sequence | binding signal [E-score]
CTACTTTA | -0.0152
AGCCCTTC | -0.143
CCGCGGTC | -0.137
AGCTCTAT | 0.0837
AGCACCTA | -0.109
ACAGTGCC | 0.069
GTGAGCGA | 0.0646
ACGCGTGA | 0.0637
AGAAACAA | -0.229
AGTACATG | 0.0723
GCAATTGA | -0.0701
ACGTGATC | 0.302
CCAGGTAG | -0.00324
GCTTCAAA | -0.173
TCCGTCGA | 0.0718
AAAGACGC | -0.138
ATTGTCTC | 0.002
CAAGAGGA | -0.117
ATAAATCG | -0.175
ATCCGGCC | 0.316
AGTGGAAC | -0.054
ATATGAGA | 0.209
AGAGGTGG | -0.201
CAGGCGCG | -0.131
GTATGAGA | 0.167

Sequence | binding signal [E-score]
CTGAGCAA | -0.106
TAGGTTGA | 0.132
AAGCATCC | -0.0588
CTTGGTTA | -0.0175
ATTAGTAG | 0.0515
CCGAGCTC | 0.0627
AGGAGACA | 0.00869
CTTCGACA | -0.144
AAGATCAC | 0.239
ACGAAATG | -0.0953
TATTGAGA | 0.237
CTTCCCTC | -0.0832
CTCGAAAC | -0.104
GTGATGAA | 0.0121
CCAGATGG | 0.0477
CGACATCA | -0.0552
CCATTAGC | -0.12
CGGTTGCC | -0.091
ATTGAATA | 0.196
CGGTCCTA | -0.207
CCAGGAAA | -0.0311
ATTGAGGC | -0.125
TCGACAAA | -0.161
AGTTGTAC | -0.158
AGACCCAC | -0.149

Sequence | binding signal [E-score]
CCGGAATA | 0.162
GTAGTATA | 0.267
TAGTAGCA | 0.127
ATGGATAC | 0.447
CTACGGTA | -0.0103
AGATGCGC | -0.155
AACAAAGG | -0.247
GAAGGGTA | 0.213
AATATTGG | 0.138
GCTGTAAA | -0.33
GAGCACGC | -0.143
AGCGGGAA | -0.243
ACGTCGGG | 0.114
CCCAGCCG | -0.0218
CGTGGTTA | -0.122
CACTCACG | -0.0229
ATACGGAC | 0.193
TTAGCAAA | -0.275
AGACATAA | -0.0636
GCGTAGTA | -0.0752
GGACTGCC | -0.291
ATTTCCGG | -0.0202
